# Measurements from the BET-seq Pho4 binding data (Le et al. 2018).
# The other results are listed elsewhere or left out. Values were computed here from the reads of four pooled replicates and scatter widely.
# Biological target: T1, Pho4 (S. cerevisiae) (UniProt P07270)
# T1 sequence: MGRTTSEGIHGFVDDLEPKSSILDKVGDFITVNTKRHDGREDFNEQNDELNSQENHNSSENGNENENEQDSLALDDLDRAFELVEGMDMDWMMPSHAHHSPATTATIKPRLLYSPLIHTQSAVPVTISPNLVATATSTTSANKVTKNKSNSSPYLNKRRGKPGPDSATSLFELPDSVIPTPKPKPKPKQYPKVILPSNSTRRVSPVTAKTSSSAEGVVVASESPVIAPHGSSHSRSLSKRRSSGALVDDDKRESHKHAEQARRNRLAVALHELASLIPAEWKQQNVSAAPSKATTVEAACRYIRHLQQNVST
# Assay: relative binding free energy (BET-seq); higher = weaker binding
# Conditions: reference: library average
row,Sequence,relative binding free energy [kcal/mol]
1,ATGTTCACGTGCGGGA,0.24
2,CGGGGCACGTGGTAAA,-0.16
3,TTGACCACGTGTGGTA,-0.01
4,GATCGCACGTGCGGGG,-0.1
5,GCGGGCACGTGTCGTG,-0.04
6,TGATTCACGTGCAAGG,0.23
7,ATTATCACGTGTCAGG,0.03
8,AGGTACACGTGCGTTG,0.04
9,GATGGCACGTGTTAAG,-0.02
10,TGGGGCACGTGGACAA,-0.17
11,GATTACACGTGGTGTT,0.2
12,TGATGCACGTGATGGT,0.06
13,ATAGTCACGTGTAAGT,0.17
14,ATCTGCACGTGGGTGT,-0.16
15,TTCTGCACGTGGAGCT,0.15
16,GGATGCACGTGTCAGT,0.16
17,GAGATCACGTGGGTTC,0.16
18,GTCGACACGTGGTGGA,0.04
19,AGATGCACGTGTTAAT,-0.04
20,TATCTCACGTGAATGT,0.42
21,TTGAGCACGTGGGCCG,-0.16
22,GTATGCACGTGGCATG,-0.14
23,CTGCGCACGTGGAGGG,-0.19
24,AAATGCACGTGTAATG,0.04
25,CGTTTCACGTGTGCGA,0.25
26,TTGTACACGTGCGGGT,0.07

row,Sequence,relative binding free energy [kcal/mol]
1,TTTAGCACGTGGCTTG,-0.05
2,GGGTGCACGTGTCGGT,0.18
3,GAGGTCACGTGAGATT,0.41
4,GTTTCCACGTGGGATG,-0.09
5,ATAGCCACGTGTTTGG,-0.22
6,TAGAACACGTGAAGGG,0.25
7,GAGGGCACGTGTGTTT,-0.07
8,TGCTACACGTGTATGT,-0.05
9,GCATACACGTGTGGTT,0.11
10,TAGTTCACGTGATCGG,0.44
11,GAGTACACGTGGGACG,0.16
12,CGATGCACGTGTATGT,-0.04
13,GGAGGCACGTGATAGA,-0.02
14,TATAGCACGTGCTTTA,-0.01
15,AATTACACGTGGTTGT,0.05
16,CTGGGCACGTGTGTAG,-0.11
17,CGCGTCACGTGAGGTT,0.22
18,GTGATCACGTGTGTCG,0.24
19,TAGGGCACGTGTTACA,-0.12
20,TTTAACACGTGTGGGC,0.05
21,CCGGGCACGTGCGTGG,-0.2
22,TATAACACGTGGGCGG,-0.15
23,GTGTACACGTGCTGGA,-0.02
24,GGGTTCACGTGGATCT,0.31
25,GGGCGCACGTGAGGAT,0.18
26,GGTAGCACGTGGTGAG,0.01

row,Sequence,relative binding free energy [kcal/mol]
1,ATGTGCACGTGTTGGT,0.06
2,TGTGTCACGTGTAGAT,0.18
3,ACATTCACGTGAAGTT,0.46
4,TGGTTCACGTGTTCAG,0.27
5,TAGGTCACGTGTTATA,0
6,AACGGCACGTGTTGGA,0.01
7,TGATGCACGTGATGAA,0.17
8,GGGGTCACGTGATTTC,0.3
9,GTATCCACGTGTTTAT,0.1
10,TAATGCACGTGGATAG,-0.13
11,ATTTCCACGTGGGGAT,0
12,AGGGTCACGTGTGTTG,0.13
13,TTTGTCACGTGATGGG,0.31
14,TGGGACACGTGATTCG,0.07
15,GTAACCACGTGGTTTT,-0.01
16,CGGTGCACGTGTTAGA,-0.06
17,GTGTGCACGTGGGGCG,-0.08
18,GTTTACACGTGCGAAG,0.21
19,TGAGTCACGTGCGATT,0.05
20,AGTTGCACGTGGTGAT,-0.05
21,TTTTGCACGTGTACTA,0.02
22,AGGCTCACGTGTGGGC,0.15
23,GCTGGCACGTGTCGTT,-0.03
24,ATTTTCACGTGGTTTG,0.29
25,TGTGTCACGTGCTGGT,0.03
26,TATAGCACGTGTAGGT,0.02

row,Sequence,relative binding free energy [kcal/mol]
1,CTGATCACGTGTGATG,0.16
2,AGTGTCACGTGGGTGA,-0.1
3,GGTGTCACGTGTTGAC,0.15
4,GCATACACGTGGGTTT,0.03
5,CTGTGCACGTGAGCTG,0.21
6,AGTTGCACGTGGAAAT,0.07
7,TGGGACACGTGGTCGT,-0.1
8,GATACCACGTGGTTTG,-0.02
9,GTTAGCACGTGAGCAG,0.16
10,TAAGCCACGTGTGGGG,-0.05
11,AGGTTCACGTGCTAAG,0.21
12,GTAGACACGTGGGAAT,-0.02
13,ATGTGCACGTGTGCGA,-0.07
14,GTTTGCACGTGTACTA,0.18
15,AGCGTCACGTGTAGTG,0.13
16,TTCGTCACGTGGGCAG,0.02
17,CGGGGCACGTGTGAGG,-0.02
18,TCGTTCACGTGGGAGA,0.23
19,TGTATCACGTGCTTTG,0.07
20,GCGGACACGTGTGAGG,0.01
21,AAACTCACGTGGGTTG,0.16
22,TTGGTCACGTGTTCGC,0.14
23,ATGGTCACGTGTGCTG,0.14
24,TTTTGCACGTGTCGCT,0.03
25,GTTAGCACGTGGGATA,0.04
26,CGTATCACGTGGTTGG,0.06

row,Sequence,relative binding free energy [kcal/mol]
1,TGCGGCACGTGAAGGA,0.07
2,TACGGCACGTGGACGG,-0.05
3,GCGGGCACGTGCTTGG,-0.1
4,CGGATCACGTGGATTT,0.39
5,TAGGGCACGTGAGGTA,0.12
6,GTGAGCACGTGCGTAT,-0.2
7,AGTGCCACGTGCTTGT,-0.01
8,GCGTTCACGTGATCGT,0.33
9,GGGTACACGTGCGGAG,0.04
10,TTGTCCACGTGGTGAT,0.08
11,GTTGTCACGTGGAAAT,0.08
12,TTCTGCACGTGTTATT,-0.02
13,GGTTCCACGTGTTATG,0.17
14,ATTCTCACGTGGTTGA,0.43
15,TTGGCCACGTGAGGTA,0.13
16,CTGCTCACGTGTGGTT,0.09
17,AGTATCACGTGCCGGT,0.15
18,GTTAGCACGTGTATTA,-0.05
19,GGCAACACGTGTAGGT,0
20,TTTTTCACGTGTTGCT,0.28
21,TAAGGCACGTGCTGCG,-0.14
22,ATTGCCACGTGGATGT,-0.19
23,AAGGGCACGTGCTTGA,-0.18
24,GAATGCACGTGTTCGG,0.1
25,TATTTCACGTGGTACT,0.24
26,TTATACACGTGAGTGT,0.34

row,Sequence,relative binding free energy [kcal/mol]
1,TCATGCACGTGTGGCT,-0.1
2,TAAAGCACGTGATGAT,0.06
3,GAAGTCACGTGGTTAT,0.12
4,TTAAGCACGTGCGGCG,-0.14
5,TCTATCACGTGTTTTG,0.07
6,TCGTGCACGTGTAGGA,0.02
7,CGGGTCACGTGCTGTT,0.14
8,ATTGCCACGTGTTGTT,-0.07
9,ATGGACACGTGGGGTA,-0.1
10,GATATCACGTGCGGTA,0.19
11,AATGGCACGTGCGGAG,-0.16
12,GGTGTCACGTGGGCAG,0.01
13,TCTAGCACGTGGGGAT,-0.19
14,AAGAGCACGTGGTGCG,-0.3
15,ACGGGCACGTGTTGGC,-0.03
16,GTGTGCACGTGATCTT,0.1
17,AGTTACACGTGGATGG,0.12
18,GGTCACACGTGTGGGC,0.1
19,GTGGCCACGTGGCGAG,-0.22
20,GGATCCACGTGTGGAT,0.14
21,AGGTTCACGTGGCAGG,0.16
22,TGGGCCACGTGAGATT,0.12
23,GGGAGCACGTGAGGGT,0.19
24,GTACTCACGTGGGGCG,0.13
25,GGTGCCACGTGGATTT,0
26,GTTGGCACGTGGCCGT,-0.31

row,Sequence,relative binding free energy [kcal/mol]
1,GGCCTCACGTGTGGGC,0.25
2,TAATCCACGTGTTGTG,0.02
3,GGCTGCACGTGTTGCG,0.08
4,ATCCGCACGTGGGTGT,-0.21
5,GGAAGCACGTGTCTTT,0
6,ATTGTCACGTGAAAAA,0.35
7,TGGATCACGTGAGTTA,0.39
8,ATTTTCACGTGATCTT,0.3
9,GGAAGCACGTGATTGT,0.02
10,GGGTACACGTGTGAGG,0.12
11,GGCAACACGTGGGGAT,-0.09
12,GTTTGCACGTGAAGGG,0.34
13,TTGAACACGTGGGTAT,-0.14
14,AGTGCCACGTGATGTT,-0.04
15,AGAAACACGTGGGAGG,-0.04
16,AGCGGCACGTGTGAAA,0.1
17,GTGAGCACGTGGGGTC,-0.2
18,CGTGTCACGTGAAGGG,0.36
19,CGCGGCACGTGTTGGA,-0.06
20,GGTGTCACGTGGTCTG,0.04
21,GAAGTCACGTGGTGTT,0.15
22,GTGAGCACGTGTTTTA,-0.06
23,TGGTGCACGTGCTTGT,-0.1
24,CGTTTCACGTGCATGT,0.28
25,GCGTGCACGTGCTTGG,-0.05
26,TAGCGCACGTGGGAGG,-0.26

row,Sequence,relative binding free energy [kcal/mol]
1,CTATCCACGTGGGGGT,-0.12
2,TTTTTCACGTGACAAG,0.47
3,GCGGTCACGTGTCTGG,0.18
4,AGCTGCACGTGAGGGT,0.17
5,GGTTGCACGTGGAGGA,0.06
6,TTGTTCACGTGGTCTG,0.15
7,AGTGTCACGTGGTCTT,-0.15
8,AGTACCACGTGGTGGG,-0.28
9,TTTATCACGTGGTCTA,-0.05
10,CGGGGCACGTGTAATT,0.16
11,TTTGACACGTGGTCCG,-0.08
12,ATGGACACGTGGGACG,-0.02
13,TTACGCACGTGGGGAT,-0.28
14,GTGTTCACGTGGACGT,0.32
15,TGTCACACGTGTGGTT,0.09
16,TTAGACACGTGGTGCT,-0.13
17,TGAACCACGTGGTGGG,-0.06
18,GGTCGCACGTGTGACG,0.11
19,GGTTTCACGTGTAGAA,0.38
20,GTTTACACGTGTGAAA,0.12
21,ATTGGCACGTGATTTT,-0.02
22,TGTGACACGTGGTGAG,-0.04
23,ATTAACACGTGGAAGG,0.16
24,GGGTACACGTGAGGAG,0.41
25,ACTTGCACGTGGTTCG,0.02
26,CGTGACACGTGTGAGT,0.13

row,Sequence,relative binding free energy [kcal/mol]
1,AAATTCACGTGATGAT,0.41
2,GTTTGCACGTGAGCGT,0.09
3,TATGTCACGTGGATGA,0.07
4,ATGGGCACGTGCGTAG,-0.14
5,CTTGTCACGTGATGCG,0.24
6,TGGTTCACGTGGGGCA,0.25
7,GTTGTCACGTGAAGAG,0.29
8,TAGGGCACGTGTTAAT,0.01
9,TAGGTCACGTGAATAG,0.21
10,GGTGTCACGTGGAGGG,0.17
11,TCAGGCACGTGGCATG,-0.15
12,TGTAACACGTGCGAGT,-0.05
13,GCATTCACGTGAGTTG,0.49
14,AAGTGCACGTGGCTTG,-0.06
15,AGAGGCACGTGCGATT,-0.05
16,TATTACACGTGCTGGG,0.15
17,TTTTCCACGTGGGATG,0.01
18,TTGTGCACGTGTTTCG,0.01
19,AGGGTCACGTGGAGTT,0.15
20,GAGTGCACGTGTGTGA,0.08
21,TATATCACGTGCTGGA,0.08
22,GCAGGCACGTGAGAGT,0.24
